IC50 is the fitted dose that halves viability relative to control wells, and lower means more sensitive; a limit (>, <) means that the fit lies beyond the doses tested. For AUC the same curve is integrated over the 256-fold range of doses and scaled to a fraction; values near 1 show little effect. For some assays here: Where the top dose is marked as inferred, it was derived from the fitted curves, not read from the paper.
Assays:
Assay in all cases: Viability of human cancer cell lines after 72 h of drug (GDSC screen)
IPA-3 = compound: Oc1ccc2ccccc2c1SSc1c(O)ccc2ccccc12 [IPA-3]; conditions: top dose 32 µM; top dose inferred
Procedure: (§1)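 Human cancer cell lines in 384-well plates, medium with 10% serum, drug for 72 h over a 256-fold dose range (nine 2-fold or five 4-fold steps up to the top dose). Adherent lines were fixed and stained with the nucleic acid dye Syto60, suspension lines read with resazurin; signal relative to control wells, capped at 0 and 100%. One two-parameter sigmoid per drug and line, fitted in a mixed model over all curves with the slope shared within a line.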

Temozolomide = compound: Cn1nnc2c(C(N)=O)ncn2c1=O [Temozolomide]; conditions: top dose 30 µM
Procedure: as §1

XL-880 = compound: COc1cc2c(Oc3ccc(NC(=O)C4(C(=O)Nc5ccc(F)cc5)CC4)cc3F)ccnc2cc1OCCCN1CCOCC1 [XL-880]; conditions: top dose 5.12 µM; top dose inferred
Procedure: as §1

Tubastatin A = compound: CN1CCc2c(c3ccccc3n2Cc2ccc(C(=O)NO)cc2)C1 [Tubastatin A]; conditions: top dose 20 µM
Procedure: as §1

CI-1040 = compound: O=C(NOCC1CC1)c1ccc(F)c(F)c1Nc1ccc(I)cc1Cl [CI-1040]; conditions: top dose 10 µM; top dose inferred
Procedure: as §1

Cell Line | AUC (IPA-3) | IC50 (IPA-3) | AUC (Temozolomide) | IC50 (Temozolomide) | AUC (XL-880) | IC50 (XL-880) | AUC (Tubastatin A) | IC50 (Tubastatin A) | AUC (CI-1040) | IC50 (CI-1040)
LU-135 (small cell lung carcinoma, suspension) | 0.861 | 19.9 µM | 0.986 | > 30 µM | 0.431 | 0.215 µM | 0.92 | > 20 µM | 0.975 | > 10 µM
SUIT-2 (pancreas, adherent) | 0.984 | > 32 µM | 0.985 | > 30 µM | 0.489 | 0.298 µM | 0.738 | 6.24 µM | 0.676 | 2 µM
JHH-2 (liver, adherent) | 0.986 | > 32 µM | 0.984 | > 30 µM | 0.602 | 0.622 µM | 0.986 | > 20 µM | 0.847 | 8.26 µM
LN-18 (glioma, adherent) | 0.988 | > 32 µM | 0.993 | > 30 µM | 0.731 | 1.25 µM | 0.994 | > 20 µM | 0.967 | > 10 µM
NCI-H2029 (small cell lung carcinoma, adherent) | 0.992 | > 32 µM | 0.992 | > 30 µM | 0.807 | 2.32 µM | 0.99 | > 20 µM | 0.982 | > 10 µM
KP-2 (pancreas, adherent) | 0.827 | 21.7 µM | 0.961 | > 30 µM | 0.667 | 0.976 µM | 0.971 | > 20 µM | 0.734 | 3.09 µM
NCI-H2009 (lung adenocarcinoma, adherent) | 0.639 | 4.97 µM | 0.982 | > 30 µM | 0.801 | 2.67 µM | 0.978 | > 20 µM | 0.749 | 3.4 µM
COLO-680N (oesophagus, adherent) | 0.882 | > 32 µM | 0.985 | > 30 µM | 0.982 | > 5.12 µM | 0.984 | > 20 µM | 0.876 | > 10 µM
SAS (head and neck, adherent) | 0.832 | 23.7 µM | 0.982 | > 30 µM | 0.624 | 0.73 µM | 0.981 | > 20 µM | 0.863 | > 10 µM
OSC-20 (head and neck, adherent) | 0.857 | > 32 µM | 0.957 | > 30 µM | 0.604 | 0.654 µM | 0.959 | > 20 µM | 0.824 | 7.52 µM
CAL-51 (breast, adherent) | 0.595 | 3.5 µM | 0.988 | > 30 µM | 0.874 | 3.87 µM | 0.991 | > 20 µM | 0.927 | > 10 µM
